# Test results reported in paper PMC4336329 (PLoS ONE, 2015).
# The whole screen tested about 310,000 compounds, of which about 2,200 (0.71%) showed an effect of 50% or more. Effects have a minus sign here. Some of the results follow.
# Target: human ether-à-go-go-related gene (hERG) potassium channel (human, UniProt Q12809)
# Test: primary screen, population patch clamp on CHO cells stably expressing hERG
# human ether-à-go-go-related gene (hERG) potassium channel, sequence (Q12809 whole entry, looked up): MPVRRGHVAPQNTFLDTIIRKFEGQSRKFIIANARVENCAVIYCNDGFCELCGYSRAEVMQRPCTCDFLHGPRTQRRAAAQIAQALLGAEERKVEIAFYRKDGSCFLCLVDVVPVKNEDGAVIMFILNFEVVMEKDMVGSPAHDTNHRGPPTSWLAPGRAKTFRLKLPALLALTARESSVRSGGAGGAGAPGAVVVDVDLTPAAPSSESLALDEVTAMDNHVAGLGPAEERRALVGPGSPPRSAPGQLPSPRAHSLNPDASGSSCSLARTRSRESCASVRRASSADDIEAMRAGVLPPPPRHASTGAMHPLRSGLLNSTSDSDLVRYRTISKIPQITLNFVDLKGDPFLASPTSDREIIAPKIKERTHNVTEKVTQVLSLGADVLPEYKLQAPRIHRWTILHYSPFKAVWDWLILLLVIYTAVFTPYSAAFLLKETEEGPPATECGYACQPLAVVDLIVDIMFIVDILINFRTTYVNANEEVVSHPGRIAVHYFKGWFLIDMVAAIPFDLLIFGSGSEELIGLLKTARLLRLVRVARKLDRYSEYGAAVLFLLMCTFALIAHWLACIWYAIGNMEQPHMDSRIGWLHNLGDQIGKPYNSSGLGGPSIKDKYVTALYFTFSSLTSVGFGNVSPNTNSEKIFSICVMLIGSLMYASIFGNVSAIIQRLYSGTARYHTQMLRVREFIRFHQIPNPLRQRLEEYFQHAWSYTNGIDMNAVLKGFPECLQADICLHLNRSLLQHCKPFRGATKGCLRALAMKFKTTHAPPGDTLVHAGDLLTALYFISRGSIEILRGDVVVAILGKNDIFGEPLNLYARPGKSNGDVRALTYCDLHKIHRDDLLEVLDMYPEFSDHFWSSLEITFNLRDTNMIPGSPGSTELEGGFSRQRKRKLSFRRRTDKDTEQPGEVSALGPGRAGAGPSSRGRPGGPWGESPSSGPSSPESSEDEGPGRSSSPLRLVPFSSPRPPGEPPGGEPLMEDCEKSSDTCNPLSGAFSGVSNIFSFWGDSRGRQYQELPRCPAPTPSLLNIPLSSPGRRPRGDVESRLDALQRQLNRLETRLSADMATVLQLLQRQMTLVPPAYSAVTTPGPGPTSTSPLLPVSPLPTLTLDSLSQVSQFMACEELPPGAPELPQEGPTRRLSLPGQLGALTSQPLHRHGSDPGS
row,SMILES,"hERG current change (%, negative = inhibition) at 1uM"
1,CC1CCN(C(=S)Nc2ccc3nc4n(c(=O)c3c2)CCCCC4)CC1,-8.58%
2,CCOC(=O)c1cnc(-c2ccccc2)nc1C(F)(F)F,5.88%
3,CCc1ccccc1NC(=O)Nc1cccc(F)c1,13.7%
4,Cc1ccc(S(=O)(=O)NCc2ccc(C(=O)NCCN(Cc3ccccc3)C(C)C)cc2)cc1,5.61%
5,Cc1ccc(OCC(=O)NNC(=S)NC(=O)c2ccc(Br)o2)c(C)c1,21.3%
6,CC(C)Cn1c(-c2ccc(Br)cc2)c[nH]c1=S,9.97%
7,Clc1cccc(Cl)c1C1=NOC(c2nnc(-c3ccccc3)o2)C1 (centres unmarked),12.4%
8,CC12Cc3ccc4ccccc4c3C=C1C[N+](C)(C)C2.[Cl-] (centres unmarked),5.54%
9,CC(C)(C)S(=O)(=O)/C(C#N)=C/Nc1ccccn1,11.8%
10,COc1ccc(-n2c(C)nnc2SCC(=O)N2C(C)CCCC2C)cc1 (centres unmarked),-2.93%
11,CC(Oc1ccc(F)cc1)C(=O)/C=C\N(C)C (centres unmarked),7.66%
12,O=C(CS(=O)(=O)Cc1ccccc1)Nc1ccc(S(=O)(=O)N2CCCCCC2)cc1,9.82%
13,COc1ccc(NC(=O)C2CCC2)cc1S(=O)(=O)N1CCOCC1,10.6%
14,O=C(Nc1nnc(CCS(=O)(=O)c2ccc3ccccc3c2)s1)c1cccs1,3.47%
15,CC(=O)NC(C)C(c1cccs1)N1CCN(c2ccccc2)CC1 (centres unmarked),1.59%
16,CCC(C)Sc1nnc(Cc2cc(=O)[nH]c(=O)[nH]2)n1-c1ccc(F)cc1 (centres unmarked),13.7%
17,COc1cc(-c2nc(=S)[nH][nH]2)cc(OC)c1OC,13.8%
18,Cc1ccc(C)c(-c2cc(C(=O)NN3CCOCC3)c3ccccc3n2)c1,6.54%
19,Cc1sc2nc(SCC(=O)NCCO)n(C)c(=O)c2c1C,10.2%
20,Cc1nn(C)cc1S(=O)(=O)NCc1ccccc1Cl,16%

row,SMILES,"hERG current change (%, negative = inhibition) at 1uM"
1,CN(c1ccc(C(=O)Nc2cccnc2)cc1)S(C)(=O)=O,2.83%
2,Nc1ccc(S(=O)(=O)c2ccc(Cl)cc2)cc1,5.29%
3,CN(C(=O)Nc1ccc(Cl)c(Cl)c1)c1ccccc1C(=O)O,6.78%
4,C/C(CC(=O)Nc1cc(Cl)ccc1C)=N\NC(N)=O,11.7%
5,CC1=C(C(=O)OCc2ccccc2)C(c2ccc(N(C)C)cc2)NC(=O)N1 (centres unmarked),11.3%
6,CCN(CC(=O)NCc1ccc(Cl)cc1)C(=O)CCc1ccccc1,-19.8%
7,O=c1n(-c2ccccc2)c(=O)n2n1CC(O)C2,9.59%
8,O=C(NCc1ccc(C(=O)N2CCC3(CC2)OCCO3)cc1)c1ccc2c(c1)OCO2,5.42%
9,COc1cc(C(=O)NCc2ccccc2)ccc1OC(F)F,5.92%
10,CCc1ccc(C(=O)NNc2ccc(F)cc2F)cc1,14.5%
11,Cc1ccc(C(=O)Nc2ccc3c(c2)OCO3)cc1,4.56%
12,COc1ccc(S(=O)(=O)N(CC(=O)NC2CC3CCC2C3)c2ccccc2OC)cc1 (centres unmarked),5.61%
13,C/C(=N/NC(=O)c1ccc(Cl)s1)c1ccc(NC(=O)COc2ccc(Cl)cc2)cc1,7.09%
14,Cc1ccc(S(=O)(=O)NCCC(=O)OCn2nnc3ccccc3c2=O)cc1,1.77%
15,Clc1ccc(C2=Nn3c(nnc3-c3n[nH]c4c3CCC4)SC2)cc1Cl,3.5%
16,CCC(=O)OCCCCCCOc1ccc(C(=O)O)cc1,13%
17,CCN(CCC#N)c1ccc(N2C(=O)CCCC2=O)cc1[N+](=O)[O-],15.9%
18,O=C(c1ccc(N2C(=O)C3CC=C(Cl)CC3C2=O)cc1)N1CCOCC1 (centres unmarked),12.3%
19,CCN(CC)C(=O)c1sc(NC(=O)c2cccnc2)c(C(=O)OC)c1C,-2%
20,CCn1ccnc1C(O)c1cccc2ccccc12 (centres unmarked),11.7%

row,SMILES,"hERG current change (%, negative = inhibition) at 1uM"
1,C=CCOc1cccc(/C=C/c2nc3ccccc3c(=O)[nH]2)c1,11.4%
2,Cc1ccc(NC(=O)c2ccc(-n3cccn3)c([N+](=O)[O-])c2)cc1C,-13.5%
3,CN(CCC#N)C(=O)COC(=O)/C=C/c1ccc2c(c1)OCO2,9.31%
4,Cc1ccc(S(=O)(=O)N2CCN(C(=O)Cc3ccccc3)CC2)cc1,-5.66%
5,CC(=O)C1=C(O)C(=O)N(Cc2ccccc2)C1c1ccccc1F (centres unmarked),14.5%
6,CCOc1ccc(/C=N/Nc2cc(N3CCOCC3)nc(C)n2)c(O)c1,11.3%
7,NC(=O)c1ccsc1NC(=O)c1coc2ccccc2c1=O,14%
8,O=C(N/N=C/c1ccc(F)cc1)c1ccc(OCc2ccccc2)cc1,7.62%
9,FCCCOc1ccc(-c2nccc(-c3ccc(Br)cc3)n2)cc1,16.1%
10,CCOCC(=O)Nc1ccc2c(c1)N(S(=O)(=O)c1cccs1)CCC2,0.604%
11,CCCCCOC(=O)c1ccc(NC(=O)c2ccco2)cc1,7.89%
12,Cc1ccc(NC(=O)c2ccc(S(=O)(=O)NCC3CCCO3)cc2)cc1C (centres unmarked),10.4%
13,O=C(Nc1nncs1)c1ccc2c(c1)OCO2,1.25%
14,COc1ccc(C(=O)NCCCNC(=O)c2ccccn2)cc1Br,5.86%
15,COc1ccc(-n2nnnc2SCC(=O)Nc2nc3c(s2)CCCC3)cc1,11.4%
16,CC12C(=O)N(Cc3ccco3)C(=O)C1C1c3ccccc3C2c2ccccc21 (centres unmarked),3.75%
17,CCCCN(C(=O)c1cccc(S(=O)(=O)N2CCCC2)c1)c1c(N)n(CCC)c(=O)[nH]c1=O,12.7%
18,CC(C)Cc1ccc(C(C)C(=O)Nc2nccs2)cc1 (centres unmarked),11.9%
19,CC(=O)N1CCN(S(=O)(=O)c2cccc(C(=O)Nc3ccccc3N3CCCC3)c2)CC1,16.3%
